Reference: PubChem BioAssay AID485294 (National Center for Advancing Translational Sciences (NCATS), 2010)
About 150 (0.041%) of roughly 370,000 compounds were called active. This list was built around the results that the source calls inconclusive (neither active nor inactive); the mix of calls is not that of the screen. Calls come from the whole dose curve; as a rule, active = well fitted inhibition curve with a large enough effect; inconclusive = small, poorly fitted or top-dose-only effect; inactive = flat fitted curve, though single readings scatter. Potencies of inconclusive entries are left out as doubtful fits.

These compounds were tested against Beta-lactamase (Escherichia coli (strain K12)) (UniProt P00811) (assay: qHTS Inhibitors of AmpC Beta-Lactamase (assay with detergent)). Conditions: AmpC hydrolysis of nitrocefin, absorbance 480 nm, 0.01% Triton; series mostly up to 114 µM.
UniProt P00811, sequence (P00811 whole entry, looked up): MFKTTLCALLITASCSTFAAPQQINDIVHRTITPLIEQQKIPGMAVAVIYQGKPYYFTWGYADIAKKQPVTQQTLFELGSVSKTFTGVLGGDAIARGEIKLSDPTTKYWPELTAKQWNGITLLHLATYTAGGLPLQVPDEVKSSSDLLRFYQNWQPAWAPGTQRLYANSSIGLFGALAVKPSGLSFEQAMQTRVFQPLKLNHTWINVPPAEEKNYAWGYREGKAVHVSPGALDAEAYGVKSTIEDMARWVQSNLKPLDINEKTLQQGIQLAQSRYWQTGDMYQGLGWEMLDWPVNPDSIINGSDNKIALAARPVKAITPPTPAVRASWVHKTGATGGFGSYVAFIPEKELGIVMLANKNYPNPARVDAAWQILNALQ
In short: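 20 mM phosphate pH 7.0 + 0.01% (detergent screen) or 0.0001% Triton X-100; 5.3 nM AmpC reagent; cpd preinc 15 min RT; nitrocefin (800 uM stock) to start; A480 q20 s × 4 min; Activity was normalised to no-enzyme and no-compound control wells.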
Note: nearly all actives have a fitted effect of over 25% in size.
Potency is the fitted concentration of half-maximal effect; tags give direction and shape of the fitted curve.

Row | Structure (SMILES) | Potency
1 | CCN(CC(=O)Nc1cc(Cl)ccc1C)C(=O)CCOc1ccccc1C | inconclusive [inhibitor, single point]
2 | O=C(NCc1ccc(F)cc1)C(=O)NCC(c1ccco1)S(=O)(=O)c1cccs1 (centres undefined) | inactive
3 | Fc1ccc(N2CCN(C(c3cccs3)c3nnnn3C3CCCC3)CC2)cc1 (centres undefined) | inactive
4 | Cc1cc(OCC(=O)NC(Cc2c[nH]c3ccc(O)cc23)C(=O)O)c2c(C)c(C)c(=O)oc2c1 (centres undefined) | inconclusive [inhibitor, full curve, poor fit]
5 | COC(=O)c1ccc(/C=C/c2c(-c3ccc(OC)cc3)oc3ccccc23)cc1 | inconclusive [inhibitor, full curve]
6 | CC1(C)CC(=O)c2c(O)cc(OCC(=O)N3CCN(c4ccccc4)CC3)cc2O1 | inconclusive [inhibitor, full curve]
7 | COC(=O)c1ccccc1NC(=O)CSc1nnc2cc(C)c3cc(C)cc(C)c3n12 | inactive
8 | O=C(Cn1cccn1)N1CCCC(N2CCN(c3ccccc3F)CC2)C1 (centres undefined) | inconclusive [inhibitor, partial curve, poor fit]
9 | CCc1cccc(C)c1NC(=O)C(CC)Sc1nncn2c1cc1occc12 (centres undefined) | inactive
10 | CCOc1ccccc1N(C(=O)CNC(=O)c1ccco1)C(C(=O)NC1CCCC1)c1cccnc1 (centres undefined) | inconclusive [inhibitor, single point]
11 | COc1ccc(CCC(=O)Nc2cccc(S(=O)(=O)N3CCCCCC3)c2)cc1 | inactive
12 | O=C(CSc1ccc(Cl)cc1)Nc1ccccc1N1CCN(C(=O)c2ccccc2)CC1 | inactive
13 | CCOC(=O)C(CCC#N)(CCC#N)C(=O)OCC | inconclusive [inhibitor, single point]
14 | Cn1c2ccccc2c(=O)c2c(=O)n(Cc3ccco3)c(-c3ccc(F)cc3)nc21 | inactive
15 | O=S(=O)(c1ccc(Cl)c(C(F)(F)F)c1)N1CCN(c2ccccn2)CC1 | inactive
16 | COc1ccccc1CNC(=O)CCCN1C(=O)NC2(CCCC2)C1=O | inconclusive [inhibitor, full curve, poor fit]
17 | CCC(C)c1ccc(S(=O)(=O)N2CCN(c3ccccn3)CC2)cc1 (centres undefined) | inconclusive [inhibitor, partial curve]
18 | COc1ccc(Cc2nc3ccc(C(=O)NCCn4ccnc4C)cc3o2)cc1OC | inconclusive [inhibitor, partial curve]
19 | CCCCNC(=O)c1nc2ncc(Br)cn2n1 | inactive
20 | Cc1ccc(C(=O)CSc2nnc(-c3ccco3)o2)o1 | inactive
21 | CCOC(=O)C1CCCN(C(=O)c2cn(C)c3ccc(S(=O)(=O)N(C)C)cc3c2=O)C1 (centres undefined) | inconclusive [inhibitor, full curve, poor fit]
22 | Cc1ccc2c(c1)c(C1=c3ccccc3=NC1=O)c(O)n2C | inconclusive [inhibitor, full curve, poor fit]
23 | O=C(Cc1ccc(NC2=NC3CS(=O)(=O)CC3S2)cc1)N1CCN(c2ccc(F)cc2)CC1 (centres undefined) | inactive

Row | Structure (SMILES) | Potency
24 | CCCCC[C@]12Cc3ccccc3C(O1)c1c(cc(C)oc1=O)O2 | inconclusive [inhibitor, partial curve, poor fit]
25 | O=[N+]([O-])c1c(Nc2ccccc2O)cc(Cl)c2nonc12 | inactive
26 | Cc1ccc(CSCc2ccc(C(=O)NC3CCCC3)o2)cc1 | inconclusive [inhibitor, single point]
27 | Cc1cc(C(F)(F)F)nn1CC(=O)NCc1ccccc1 | inconclusive [inhibitor, partial curve, poor fit]
28 | Cc1ccc(C)c(NC(=O)NCc2ccccn2)c1 | inconclusive [inhibitor, full curve, poor fit]
29 | CC(Cc1ccccc1)C(=O)NCCO (centres undefined) | inconclusive [inhibitor, partial curve]
30 | O=C(N/N=C\c1ccc(CNS(=O)(=O)c2ccccc2)o1)C(=O)Nc1ccc(F)cc1 | inconclusive [inhibitor, full curve, poor fit]
31 | CCOC(=O)N1CCc2c(sc3c2c(=O)n(-c2ccc(F)cc2)c(=O)n3CC(=O)c2ccccc2)C1 | inactive
32 | COC(=O)c1ccc(NC(=O)CNS(=O)(=O)c2cccs2)cc1 | inconclusive [inhibitor, single point]
33 | COc1ccc(C(=O)CSc2n[nH]c(C)n2)cc1[N+](=O)[O-] | inconclusive [inhibitor, single point]
34 | O=C(Nc1cccc([N+](=O)[O-])c1)Nc1ccc(Cl)cn1 | inconclusive [inhibitor, single point]
35 | CCSc1nnc(NC(=O)C2CCCCC2C(=O)O)s1 (centres undefined) | inactive
36 | CCOc1cc2[nH]c(=S)n(Cc3ccc(C(=O)NCCN(CC)CC)cc3)c(=O)c2cc1OCC | inactive
37 | Cc1ccc(-c2nnn(CC(=O)N(c3ccccc3F)C(C(=O)NC3CCCC3)c3ccco3)n2)o1 (centres undefined) | inconclusive [inhibitor, full curve]
38 | CCOC(=O)C1CCN(C(C)C(=O)c2c(C)[nH]c3cc(C)ccc23)CC1 (centres undefined) | inconclusive [inhibitor, single point]
39 | CCOc1ccccc1NC(=O)c1nnn(CC(=O)Nc2ccccc2CC)c1N | inactive
40 | CCCC(=O)Nc1ccc(C(N)=O)cc1 | inconclusive [inhibitor, single point]
41 | Cc1ccc2oc(=O)c3cc(C(=O)Nc4cccc(C#N)c4)sc3c2c1 | inactive
42 | C/C(Cc1ccccc1)=N\NC(=O)CNC(=O)c1ccccc1F | inconclusive [inhibitor, full curve, poor fit]
43 | Cc1ccc(-c2nnn(CC(=O)N3CCN(c4ccccc4)CC3)n2)o1 | inconclusive [inhibitor, single point]
44 | Cc1ccc(-n2nc3c(N4CCC(C(=O)NCCC(C)C)CC4)nnc(C)c3c2C)cc1 | inactive
45 | COc1ccc(S(=O)(=O)N2CCN(CC3CC=CCC3)CC2)cc1 (centres undefined) | inconclusive [inhibitor, full curve, poor fit]
46 | Cc1ccc2nc(SCC(=O)N(C)C3CCS(=O)(=O)C3)[nH]c2c1 (centres undefined) | inconclusive [inhibitor, full curve, poor fit]

Row | Structure (SMILES) | Potency
47 | CCOC(=O)C1(CCCc2ccccc2)CCN(CC(O)CO)CC1 (centres undefined) | inactive
48 | CCN1C(=O)C(CC(=O)Nc2ccccc2)N(Cc2ccccn2)C1=S (centres undefined) | inconclusive [inhibitor, single point]
49 | COc1ccc(CCNC(=O)CN2CCOc3ccccc32)cc1OC | inconclusive [inhibitor, partial curve, poor fit]
50 | O=C(CCn1c(=O)c2ccccc2n(Cc2ccccc2)c1=O)NC1CCN(Cc2ccccc2)CC1 | inactive
51 | CCN(CCCNC(=O)c1[nH]c(C)c(C(C)=O)c1C)c1cccc(C)c1 | inconclusive [inhibitor, single point]
52 | COc1ccc(CCNC(=O)CSc2nnc3ccc(-c4cccnc4)nn23)cc1 | inconclusive [inhibitor, partial curve]
53 | COc1ccc(Cl)cc1NC(=O)CCCS(=O)(=O)c1nc(-c2ccc(OC)c(OC)c2)cc(C(F)(F)F)n1 | inactive
54 | Cn1c(=O)c2c(SCC(N)=O)nc(CC(C)(C)C)nc2n(C)c1=O | inconclusive [inhibitor, full curve, poor fit]
55 | COc1cc2c(cc1OC)CN(CC(=O)Nc1ccc(S(=O)(=O)N3CCCC3)cc1)CC2 | inactive
56 | O=S1(=O)[C@H]2C[C@@H]3C=C[C@@]2(CN1Cc1cccc(C(F)(F)F)c1)O3 | inconclusive [inhibitor, full curve, poor fit]
57 | CCCCOC(=O)Nc1ccc(N2CCOCC2)cc1 | inactive
58 | CCCCOC(=O)C1=C(C)Nc2ncnn2C1c1cccc(OC)c1OC (centres undefined) | inconclusive [inhibitor, full curve, poor fit]
59 | CC(C)(C)C(=O)Nc1nnc(SCc2cccc(F)c2)s1 | inactive
60 | COC(=O)[C@H](Cc1ccccc1)N(C)S(=O)(=O)c1cccc(S(=O)(=O)N(C)[C@@H](Cc2ccccc2)C(=O)OC)c1 | inconclusive [inhibitor, full curve, poor fit]
61 | O=C(COc1ncnc2ccccc12)N1CCN(C(=O)c2ccco2)CC1 | inconclusive [inhibitor, partial curve, poor fit]
62 | COc1ccc(CCNC(=O)/C=C/c2ccco2)cc1 | inconclusive [inhibitor, full curve, poor fit]
63 | CCc1c(O)cc2n(c1=O)-c1ccccc1C2(C)C | inconclusive [inhibitor, partial curve, poor fit]
64 | COc1ccc(-c2cc(C(=O)N/N=C/c3ccc4c(c3)OCO4)c3ccccc3n2)c(OC)c1 | inconclusive [inhibitor, partial curve]
65 | Cc1ccc(-c2nc3cc(NC(=O)c4cc(Br)ccc4Cl)ccc3o2)cc1 | inactive
66 | Cc1cccn2cc(CCNS(=O)(=O)c3ccc([N+](=O)[O-])cc3)nc12 | inactive
67 | CC1=C(C(N)=O)C(c2ccc(Cl)cc2Cl)n2ncnc2N1 (centres undefined) | inconclusive [inhibitor, partial curve]
68 | CCC(=O)Nc1nnc(SCC(=O)Nc2ccc(F)cc2)s1 | inconclusive [inhibitor, full curve, poor fit]
69 | CCOC(=O)CSc1nc2cc(OCC)ccc2cc1C#N | inconclusive [inhibitor, single point]
